Measurements taken from PubChem BioAssay AID1963576 (National Center for Advancing Translational Sciences (NCATS), 2024).
Among all 46,000 compounds or so, about 60 (0.1%) were called active. About 3% were inconclusive and are not listed. Calls follow the shape of the dose curve; as a rule, active = well fitted inhibition curve with a large enough effect; inconclusive = small, poorly fitted or top-dose-only effect; inactive = no such curve, though single readings can be large or run the other way. This is one part of the list.

Test: Primary qHTS assay for Inhibitors of ovarian cancer metastasis using an organotypic tumor microenvironment (TME) model. Also: nearly all actives have a fitted effect of over 65% in size.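 As to activity change, negative = inhibition: plate controls were DMSO wells for no effect and tomatine positive control wells for full effect.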
Conditions: SKOV3ip1-GFP adhesion/invasion on 3D omental model, fluorescence; series mostly up to 45.8 µM; activity change, negative = inhibition: at the top concentration
How it was run: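 Adhesion/invasion was scored as fixed GFP-labeled SKOV3ip1 cell counts (488/509 nm), normalized to DMSO and tomatine controls. Cancer cells in serum-free medium, with four compound doses (0.36-46 umol/L), sat 2 hr at RT then 16 hr at 37 C on a 48 hr fibroblast/mesothelial/ECM culture.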

outcome, inactive:
COc1ccc(Cn2c(C(=O)O)c(CNCc3ccccc3F)c3ccc(OC)cc32)cc1, COc1cccc(CNC(=O)c2ccc3c(c2)c(C)c(C)n3Cc2ccccc2)c1, CCOC(=O)c1c(C)[nH]c(C)c1S(=O)(=O)N1CCC(C(=O)Nc2cc(Cl)ccc2OC)CC1, Cc1cc(C)c(NC(=O)c2sc3nc(C)cc(C)c3c2NC(=O)c2ccccc2)c(C)c1, CCC(=O)N1c2ccccc2CC1C(=O)NCCc1ccc(OC)c(OC)c1 (stereo not drawn), CCc1nn2c(=O)cc(COC(=O)COc3ccc(OC)cc3)nc2s1, COc1ccc(-c2nc(C)c(CCNS(=O)(=O)c3cc(Cl)ccc3Cl)s2)cc1, CCCCC(=O)NC1CC(=O)N(c2ccc3c(c2)OCCO3)C1 (stereo not drawn), Cc1nc2c(-c3ccc(F)cc3)c(C)nn2c(C)c1CCC(=O)N1CCN(c2ccccc2)CC1, CCC1CN(S(=O)(=O)c2cc(-c3cc(C)no3)ccc2C)c2cc(C)ccc2O1 (stereo not drawn)

Activity change, negative = inhibition, inactive:
CCCSc1ncc(Cl)c(C(=O)Nc2ccc(S(=O)(=O)N(C)c3ccccc3)cc2)n1 -5.22%, CCN(CCCNC(=O)Cn1ncc2c3ccccc3n(C)c2c1=O)Cc1ccccc1 -1.44%, COc1ccc(NC(=O)c2cc(S(=O)(=O)N3CCOCC3)ccc2OC)cc1 9.3%, CCn1nnc2c(N3CCOCC3)nc(-c3ccc(NC(=O)Nc4ccc(C(=O)N5CCN(C)CC5)cc4)cc3)nc21 -16.1%, COc1ccc(S(=O)(=O)N2CCC(C(=O)Nc3ccc(Oc4ccccc4)cc3)CC2)cc1 -6.76%, CCc1cccc(C)c1NS(=O)(=O)c1c(C(=O)N2CCC(C)CC2)c(C)n(C)c1C -7.23%, NS(=O)(=O)c1cc(C(=O)O)c(NCc2ccco2)cc1Cl -20.1%, CC(C)OC(=O)[C@H](C)N[P@](=O)(OC[C@H]1O[C@@H](n2ccc(=O)[nH]c2=O)[C@](C)(F)[C@H]1O)Oc1ccccc1 1.36%, CCOc1ccccc1N(CC)C(=O)Cn1ncc2c([nH]c3ccccc32)c1=O 4.52%, Cc1nnc(N2CCC(C(=O)NC3CCCCC3)CC2)c2nn(-c3ccccc3)c(C)c12 -2.52%, COc1ccc(CNC(=O)c2cc3cc4cc(OC)ccc4nc3o2)cc1 4.48%, Cc1ccc(C)c(NC(=O)N2CCN(C(=O)c3nsc4ccccc34)CC2)c1 1.38%, COc1cc(Cl)c(C)cc1NC(=O)C1CCN(c2nc3ccccc3n3cccc23)CC1 -1.67%, COc1ccc(OC)c(NS(=O)(=O)c2ccc3c(c2)C(C)(C)C(=O)N3C)c1 -5.16%, COc1ccc(S(=O)(=O)Nc2cccc(-c3ccc(N4CCCC4)nn3)c2)c(OC)c1 -3.14%, CC(=O)c1ccc(NC(=O)c2nc3ccccc3nc2N2CCCCC2)cc1 21.5%, O=C(c1ccccc1)N1CCN(CCc2ccncc2)CC1 0.279%, COc1ccccc1C(=O)Nc1cccc(C(=O)OCc2cc(=O)n3cc(C)sc3n2)c1 20.7%, CCOc1ccc(CCNC(=O)c2cn(C)c3ccc(S(=O)(=O)N4CCCCC4)cc3c2=O)cc1OCC 6.76%, CC1=C(c2ccc(C)c(C)c2)S(=O)(=O)NC1=NCc1ccccc1Cl 15%, COC(=O)CN1C(=O)CSc2ccc(S(=O)(=O)Nc3cc(C)ccc3C)cc21 -0.239%, Cc1c(C(=O)Nc2cccc(C(F)(F)F)c2)oc2ccc3c(c12)C(=O)CC(C)(C)O3 3.52%, CCc1ccc(S(=O)(=O)Nc2cc3c(C(=O)OCc4ccccc4)c(C)oc3c3ccccc23)cc1 -0.939%, O=C(CNC(=O)c1ccc(F)cc1)OCc1cc(=O)n2nc(C3CC3)sc2n1 0.82%, O=C(CCn1cnc2ccccc2c1=O)NCc1ccccc1Cl -1.04%, CCc1nc2nc(C)c(NS(=O)(=O)c3ccc(C(C)(C)C)cc3)c(=O)n2[nH]1 -2.02%, Cn1c(=O)oc2cc(S(=O)(=O)NCCC(=O)Nc3ccc(F)cc3F)ccc21 6.74%, CCOC(=O)c1cc2c(=O)n3ccccc3nc2n(CCOC)c1=NC(=O)c1c(-c2ccccc2Cl)noc1C 13.2%, Cc1c(NC(=O)c2ccc(-c3cccc([N+](=O)[O-])c3)o2)cccc1-c1nc2cc(Cl)ccc2o1 26.1%, COc1cccc(-n2c(=O)c3sc4ccccc4c3n(CC(=O)NC3CCCCC3)c2=O)c1 6.98%, COc1ccc(CNC(=O)Cn2c(=O)nc(-c3ccccc3)c3ccccc32)cc1OC 0.153%, CC(C)CCNC(=O)Cc1ccc(NC(=O)N2CCCCc3ccccc32)cc1 9.14%, O=C(NCCC1=CCCCC1)c1ccc2c(c1)N(Cc1cccc(Cl)c1)C(=O)c1ccccc1S2=O (stereo not drawn) 15.1%, CCN(CC)S(=O)(=O)c1ccc(OC)c(-n2cnnn2)c1 3.82%, Cc1ccc(S(=O)(=O)N(CC(=O)Nc2ccc3c(c2)OCO3)c2cc(Cl)cc(Cl)c2)cc1 3.23%, Cc1cc(OCC(=O)Nc2ncn[nH]2)ccc1Cl -7.11%, CCc1ccc(CNC(=O)c2nn(-c3ccc(C)cc3)c(=O)c3c2c2ccccc2n3C)cc1 -24.4%, CCCCn1c(SCC(=O)c2ccccc2)nc2c(sc3ccccc32)c1=O -2.55%, CCN(C(=O)Cn1nnc2sc3c(c2c1=O)CCC(C(C)(C)C)C3)c1cccc(C)c1 (stereo not drawn) -7.96%, COC(=O)c1cc2oc3ccccc3c2n1Cc1nc(-c2ccc(Cl)cc2)oc1C -4.69%, Cc1ccc(-n2nc3ccc(NC(=O)COc4ccccc4C)cc3n2)cc1 -16.3%, COc1cc(CCC(=O)NCc2ccc3c(c2)CCN3C(=O)c2ccccc2)cc(OC)c1OC -7.72%, CC(=O)c1ccc(N2CCN(C(=O)C3CCCN(S(=O)(=O)c4ccc(Br)s4)C3)CC2)cc1 (stereo not drawn) 0.371%, CSc1ccc(CCNC(=O)c2cc(C)nc3c2c(C)nn3-c2ccccc2)cc1 -22.5%, CC(=O)N1CCN(c2ccc(OCc3nn(C)c(C)c3-c3cccc4c(CCCOc5cc(C)c(Cl)c(C)c5)c(C(=O)O)n(Cc5cccnc5)c34)cc2)CC1 19.4%, Cc1ccc(-c2nnc(Nc3cccc(Cl)c3)c3ccccc23)cc1S(=O)(=O)N1CCCCC1 -11.2%, Cc1ccc(-n2nc(CO)c(C(=O)NCCCCc3ccccc3)n2)cc1C -19.4%, Cc1ccc(C)c(N2CCN(S(=O)(=O)c3cc(-c4cc(C)no4)ccc3C)CC2)c1 -20.7%
